Laboratory results: PubChem BioAssay AID488969 (Vanderbilt High Throughput Screening Facility, 2010)
Over roughly 110,000 compounds, “z-score” has its median near -0.1; the highest 2% begin near 2. The list shows a part of the results. Calls of active or inactive are those of the source.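 The calls were made as follows: active = z-score in the third read window above 3 or below -3; inactive = the rest.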

biological target: Metabotropic glutamate receptor 8 (Rattus norvegicus) (UniProt P70579); assay: mGluR8 Gi/Go-coupled signaling modulation – cell-based, rat, thallium flux, HTS, primary screen (AID 488969); conditions: HEK293 rat mGluR8, GIRK (G protein-gated inwardly rectifying potassium channel) thallium flux, FluoZin2; at 10 µM; stronger effect = higher value; submaximal glutamate (EC20) added with thallium
Chain of UniProt P70579 (P70579 whole entry, looked up): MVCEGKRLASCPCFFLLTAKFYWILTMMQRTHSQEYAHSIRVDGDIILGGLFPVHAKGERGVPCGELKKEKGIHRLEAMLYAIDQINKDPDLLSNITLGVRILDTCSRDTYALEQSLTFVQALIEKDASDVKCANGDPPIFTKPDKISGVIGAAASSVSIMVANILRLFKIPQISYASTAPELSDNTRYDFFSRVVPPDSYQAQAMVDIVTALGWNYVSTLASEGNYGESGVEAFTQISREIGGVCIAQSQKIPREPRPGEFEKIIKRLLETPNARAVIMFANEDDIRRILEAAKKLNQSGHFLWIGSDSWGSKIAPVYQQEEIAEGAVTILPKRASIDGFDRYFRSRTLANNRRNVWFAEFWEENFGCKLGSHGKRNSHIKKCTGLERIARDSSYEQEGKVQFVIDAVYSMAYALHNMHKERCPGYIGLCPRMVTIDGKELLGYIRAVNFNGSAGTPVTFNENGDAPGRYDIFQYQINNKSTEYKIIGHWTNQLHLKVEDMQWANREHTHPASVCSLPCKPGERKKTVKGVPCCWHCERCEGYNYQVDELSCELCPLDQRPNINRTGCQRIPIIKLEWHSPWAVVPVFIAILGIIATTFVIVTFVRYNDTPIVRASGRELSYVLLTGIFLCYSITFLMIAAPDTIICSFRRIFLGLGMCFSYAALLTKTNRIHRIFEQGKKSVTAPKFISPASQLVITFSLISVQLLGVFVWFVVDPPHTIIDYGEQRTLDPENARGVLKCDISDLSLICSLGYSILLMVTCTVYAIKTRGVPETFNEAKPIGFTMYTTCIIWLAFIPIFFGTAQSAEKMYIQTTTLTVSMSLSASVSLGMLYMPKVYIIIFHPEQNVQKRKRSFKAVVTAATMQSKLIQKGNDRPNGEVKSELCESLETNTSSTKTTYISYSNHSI

**Q.** How did the z-score turn out when `CCOC(=O)C1=C(N)N2C(=O)C(C)SC2=C(C(=O)OC)C1c1cccc(OC)c1` (centres undefined) was run?
**A.** 0.245

**Q.** With `Cc1ccc(C(=O)NC2CCS(=O)(=O)C2)cc1S(=O)(=O)N1CCOCC1` (centres undefined) as the compound, how does the z-score read?
**A.** 0.00448

**Q.** How did the z-score turn out when `CCN(CC)S(=O)(=O)c1cc(NC(=O)C(C)OC(=O)c2[nH]c(C)c(C(C)=O)c2C)ccc1C` (centres undefined) was run?
**A.** 0.468

**Q.** `CC(C)Oc1cccc(C(=O)NC(=S)Nc2ccc3c4c(cccc24)CC3)c1` was tested. Which z-score did it give?
**A.** 1.24

**Q.** With `Cc1nc2ccccc2c(=O)n1C1CCCCCC1` as the compound, how does the z-score read?
**A.** -0.0751

**Q.** How did the z-score turn out when `O=C(Nc1ccc(C(=O)N2CCCCC2)cc1)c1ccc(Br)cc1` was run?
**A.** 1.09

**Q.** Which z-score does the source give for `CCN(C(=O)CSc1nnc2ccccn12)c1c(N)n(Cc2ccccc2)c(=O)[nH]c1=O` here?
**A.** 0.0507

**Q.** `CCOC(=O)Nc1ccc(S(=O)(=O)Nc2nc(C)cc(C)n2)cc1` was tested. Which z-score did it give?
**A.** -0.111

**Q.** Which z-score does the source give for `CCOc1cc(/C=N/O)ccc1OCC(=O)Nc1cccc(C)c1` here?
**A.** -0.0891

**Q.** `CC(C)N1C(=O)/C(=C\c2nc3ccccc3c(=O)[nH]2)c2ccccc21` was tested. Which z-score did it give?
**A.** -0.25

**Q.** How did the z-score turn out when `COc1cccc(/C=C(\C#N)C(=O)NC2CCS(=O)(=O)C2)c1` (centres undefined) was run?
**A.** -0.238

**Q.** For `CC(=O)Oc1cccc(/C=c2\sc3nc(-c4ccco4)nn3c2=O)c1`, which z-score is on record?
**A.** -0.739

**Q.** For `Cc1ccc2c(CC(=O)NCc3ccc4c(c3)OCO4)coc2c1`, which z-score is on record?
**A.** 0.281

**Q.** Which z-score does the source give for `CCn1c(CNC(=O)COc2ccc(C(C)C)cc2)nnc1SCC(=O)Nc1ccccc1` here?
**A.** -0.487

**Q.** How did the z-score turn out when `COc1ccc(/C=C/C(=O)O/N=C(\N)c2ccccc2)cc1OC` was run?
**A.** -0.333

**Q.** `O=C(NCCCn1ccnc1)c1sc2cccc(F)c2c1Cl` was tested. Which z-score did it give?
**A.** -0.19

**Q.** `O=C(Nc1ccccc1)N1CCSc2cc(Cl)ccc21` was tested. Which z-score did it give?
**A.** 0.221

**Q.** How did the z-score turn out when `Cc1cccc(N2C(=O)CN=C2Nc2nc(C)cc(C)n2)c1` was run?
**A.** -0.792

**Q.** How did the z-score turn out when `CCCCN(C(=O)c1cnc2n(c1=O)CCS2)c1ccccc1` was run?
**A.** -0.0461

**Q.** `COc1cccc(NC(=O)CNS(=O)(=O)c2ccc3nc(C)sc3c2)c1` was tested. Which z-score did it give?
**A.** 0.0289

**Q.** Which z-score does the source give for `O=C(Nc1ccn(-c2ccccc2)n1)c1ccc(S(=O)(=O)N2CCCCCC2)cc1` here?
**A.** -0.122

**Q.** How did the z-score turn out when `O=C(CN1C(=O)c2cccc3cccc1c23)N1CCN(Cc2ccc3c(c2)OCO3)CC1` was run?
**A.** -0.363

**Q.** `CS(=O)(=O)N(Cc1ccccc1)c1ccc(C(=O)NCc2ccccc2)cc1` was tested. Which z-score did it give?
**A.** -0.193

**Q.** With `COC(=O)c1ccc(NC(=O)C(=O)NCC2CCCO2)cc1` (centres undefined) as the compound, how does the z-score read?
**A.** -0.151

**Q.** With `Cc1nn2c(C(F)(F)F)cc(-c3ccc(Cl)cc3)nc2c1C(=O)N1CCOCC1` as the compound, how does the z-score read?
**A.** 0.903

**Q.** For `COc1ccc(NC(=O)C(F)(OC)C(F)(F)F)c(OC)c1` (centres undefined), which z-score is on record?
**A.** -0.224

**Q.** `O=C1CN(C(=O)COc2ccccc2)CCN1` was tested. Which z-score did it give?
**A.** -0.232

**Q.** With `Cc1ccc(S(=O)(=O)Nc2cc(C(=O)N3CCOCC3)ccc2N2CCCCC2)cc1` as the compound, how does the z-score read?
**A.** -0.144

**Q.** With `Cc1cccc2cc(CN(CCCN3CCOCC3)Cc3nnnn3C(C)(C)C)c(=O)[nH]c12` as the compound, how does the z-score read?
**A.** -0.15

**Q.** For `NC(=O)C1(N2CCCCC2)CCN(C(=O)c2ccc(C#CC3(O)CCCCC3)cc2)CC1`, which z-score is on record?
**A.** -0.272

**Q.** How did the z-score turn out when `COc1cc(C2CC(=O)NC3=C2C(=O)CC(C)(C)C3)ccc1O` (centres undefined) was run?
**A.** 0.0441

**Q.** Which z-score does the source give for `CC(=O)Nc1ccc(S(=O)(=O)N2CCCCC2c2cccnc2)cc1` (centres undefined) here?
**A.** -0.375

**Q.** For `CC(=O)C1=C(C)N(Cc2ccco2)C(=O)C1(NC(=O)C1CCCCC1)C(F)(F)F` (centres undefined), which z-score is on record?
**A.** -0.0258

**Q.** Which z-score does the source give for `COc1ccc(CSc2nncn2N)cc1[N+](=O)[O-]` here?
**A.** 0.116

**Q.** `CCOc1ccccc1NC(=O)c1ccc(F)c(S(=O)(=O)N2CCC3(CC2)OCCO3)c1` was tested. Which z-score did it give?
**A.** 2.77

**Q.** Which z-score does the source give for `C/C(=N/NC(=O)Nc1ccccc1)c1ccc(C)cc1` here?
**A.** -0.14

**Q.** For `CCc1ccc(-c2nc(CSCC(=O)NCCCN3CCCC3=O)c(C)o2)cc1`, which z-score is on record?
**A.** -0.348

**Q.** `CCN(CC)S(=O)(=O)c1ccc2nc(CSc3nnnn3-c3ccc(O)cc3)[nH]c2c1` was tested. Which z-score did it give?
**A.** -0.372

**Q.** Which z-score does the source give for `CC1CCc2nc(NC(=O)CSc3nc4ccccc4o3)sc2C1` (centres undefined) here?
**A.** 0.586

**Q.** Which z-score does the source give for `COC(=O)c1ccccc1NC(=O)CN1CCC(n2nnc3cc(F)ccc32)CC1` here?
**A.** -0.43

**Q.** With `CCn1c(-c2cc(-c3ccc(OC(C)C)cc3)nc3ccccc23)n[nH]c1=S` as the compound, how does the z-score read?
**A.** 1.25

**Q.** With `C=COC(=O)CSc1snc(SCC(=O)OC)c1C#N` as the compound, how does the z-score read?
**A.** -0.893

**Q.** With `O=c1[nH]c2ccc(N=Cc3c(O)ccc4cc(Br)ccc34)cc2[nH]1` as the compound, how does the z-score read?
**A.** -0.755

**Q.** With `CCn1c(=S)[nH]c2cc(S(=O)(=O)N3CCCCC3)ccc21` as the compound, how does the z-score read?
**A.** 0.428

**Q.** With `O=C(Nc1ccc(N2CCN(Cc3ccccc3Cl)CC2)cc1)c1cccnc1` as the compound, how does the z-score read?
**A.** 0.311

**Q.** With `COc1cc(OC)c2c(c1)C(=O)OC2` as the compound, how does the z-score read?
**A.** -0.062

**Q.** For `CC(=O)Nc1ccc(NC(=O)CSc2ccccn2)cc1`, which z-score is on record?
**A.** -0.239

**Q.** How did the z-score turn out when `N#CCCNC(=O)CCN1CCCCC1` was run?
**A.** -0.17

**Q.** `CCCCOC(=O)C(NC(=O)c1ccccc1)=C(C)C` was tested. Which z-score did it give?
**A.** -0.559

**Q.** Which z-score does the source give for `COc1ccc(-c2cc(C(=O)NCCc3ccccc3)no2)cc1OC` here?
**A.** 1.12

**Q.** Which z-score does the source give for `COc1ccccc1N1CCN(/N=C/c2cc(OC)c(OC)c(OC)c2)CC1` here?
**A.** -0.0785

**Q.** `[O-]/[N+](=C\c1ccncc1)c1ccccc1` was tested. Which z-score did it give?
**A.** -0.31

**Q.** For `Cc1ccccc1-n1c(SCc2c(C)noc2C)nnc1-c1cccnc1`, which z-score is on record?
**A.** -0.106

**Q.** How did the z-score turn out when `CC(=O)OCC1OC(Sc2cccc3cccnc23)C(OC(C)=O)C(OC(C)=O)C1OC(C)=O` (centres undefined) was run?
**A.** -0.0154

**Q.** For `O=C(NC(=S)N1CCCc2ccccc21)c1ccc(Cl)cc1`, which z-score is on record?
**A.** active: 15.6

**Q.** With `O=C(COc1ccccc1[N+](=O)[O-])NCc1cccnc1` as the compound, how does the z-score read?
**A.** -0.288

**Q.** `CCCCn1nnnc1SCC(=O)NCc1ccccc1` was tested. Which z-score did it give?
**A.** -0.156

**Q.** For `Cc1ccc(NCc2cccnc2)cc1`, which z-score is on record?
**A.** -0.598

**Q.** Which z-score does the source give for `Cc1cc(C)c2[nH]c(=O)c(CN(Cc3cccs3)C(=S)NCc3ccco3)cc2c1` here?
**A.** -0.141

**Q.** For `CCN1C(=O)/C(=C\N2CCN(c3ccccc3)CC2)SC1=S`, which z-score is on record?
**A.** 0.0106

**Q.** For `COc1ccccc1C(=O)Nc1ccc(Oc2ncnc3sc(-c4ccccc4)cc23)cc1`, which z-score is on record?
**A.** -0.975

**Q.** For `CN(C)CCCN(C(=O)c1ccc2c(c1)CCCC2)c1nc2ccc(F)cc2s1`, which z-score is on record?
**A.** 0.35

**Q.** Which z-score does the source give for `CCOC(=O)c1[nH]c2c(c1C)C(=O)CC(c1ccc(OC)c(OC)c1)C2` (centres undefined) here?
**A.** -0.228

**Q.** With `CCN1CCN(C(=O)c2c(-c3c(F)cccc3Cl)noc2C)CC1` as the compound, how does the z-score read?
**A.** -0.521

**Q.** How did the z-score turn out when `Cc1sc(NC(=O)C2CCCO2)c(C(N)=O)c1C` (centres undefined) was run?
**A.** 0.183

**Q.** Which z-score does the source give for `COc1ccc(Cl)cc1NC(=O)c1c(-c2ccccc2)noc1C` here?
**A.** 0.0513

**Q.** With `CC(=O)c1cccc(NC(=O)N2CCCC2C(=O)Nc2cc(C)ccc2C)c1` (centres undefined) as the compound, how does the z-score read?
**A.** -0.656

**Q.** Which z-score does the source give for `O=C(OCCN1C(=O)c2cccc3c(N4CCOCC4)ccc(c23)C1=O)c1ccc(Cl)cc1` here?
**A.** -0.758

**Q.** For `O=C(Nc1ccc(N2CCOCC2)c(Cl)c1)c1ccco1`, which z-score is on record?
**A.** 1.5
